# In all, about 410,000 compounds went through this assay and about 530 (0.13%) were called active. The shares of active, inactive and inconclusive entries below differ from those in the screen. Calls come from the whole dose curve; as a rule, active = well fitted inhibition curve with a large enough effect; inconclusive = small, poorly fitted or top-dose-only effect, or another doubt; inactive = no such curve, though single readings can be large or run the other way. Potencies of inconclusive entries are doubtful fits and often do not repeat. *1 amine or outer side, *2 acyl side, *3 side chain or, on linkers, in order; H or OH if unused. Where a SMILES comes first, the peptide text is derived from it. [ ]: non-standard residue; d: D form. X2 = CC[C@H](C)[C@H](OC(=O)[C@@H](C)[C@@H](CC)N[*:1])C(=O)[*:2]; X1 = CC(N[*:1])C(=O)C(C)(C)C(=O)[*:2]; NMeF = CN[C@@H](Cc1ccccc1)C(=O)O; NMeL = CN[C@@H](CC(C)C)C(=O)O; NMeV = CN[C@H](C(=O)O)C(C)C; NMeA = CN[C@@H](C)C(=O)O
# Assay: qHTS of GLP-1 Receptor Inverse Agonists: Cytotox Screen
# Details: HEK293 cAMP-luciferase reporter cells, luminescence, 24 h; activity change, negative = inhibition: at 38.3 µM (top of the series)
# Procedure, shortened: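 To flag toxic compounds, the library was rerun on cells for 24 hr at 37 deg C and 5% CO2. Viability-linked luminescence was captured 12 min after adding luciferase detection reagent.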
# % is set by controls: 0 for no effect and ±100 for the full control effect; potency is the fitted concentration of half-maximal effect.
SMILES,Potency,"activity change, negative = inhibition"
Fc1ccccc1/C=N/NC(=S)Nc1ccc(Cl)cc1Cl,"inconclusive: 5.62 µM [inhibitor, partial curve, poor fit]",
CC(C)=CC(=O)Nc1ccc(OCc2ccccc2)cc1,inactive,
COc1ccc(-c2nc(SC(C)C(=O)NCC3CCCO3)n[nH]2)cc1 (stereo not given),"inconclusive: 10 µM [inhibitor, single point]",
COc1ccc(-n2ncc3c2CC(C)(C)CC3NC(=O)c2oc(C)cc2C)cc1 (stereo not given),inactive,
O=C(c1ccc(-n2cncn2)c([N+](=O)[O-])c1)N1CCN(S(=O)(=O)c2ccccc2F)CC1,inactive,
O=C1NCC(c2ccccc2)C1C(=O)N/N=C\c1ccc(-c2cccc(Cl)c2Cl)o1 (stereo not given),"inconclusive: 28.2 µM [inhibitor, single point]",
Cc1cccc(-c2cc(C(=O)Nc3sc(C)c(C)c3C(N)=O)c3ccccc3n2)c1,"inconclusive: 28.2 µM [inhibitor, single point]",
CCS(=O)(=O)c1ncc(Cl)c(C(=O)N2CCN(c3ccc(OC)cc3)CC2)n1,"inconclusive: 22.4 µM [inhibitor, single point]",
COc1cc(OC)c(-c2nc3c[n+](CC(=O)c4ccccc4)ccc3n2C)cc1OC,"inconclusive: 28.2 µM [inhibitor, single point]",
Cc1ccc(C(C)C)c(OCc2ccc(C(=O)N/N=C/c3cccc(O)c3O)cc2)c1,"inconclusive: 12.6 µM [inhibitor, partial curve, poor fit]",
CCn1ncc(/C=C/C(=O)Nc2c(C)nn(Cc3ccc(Cl)cc3Cl)c2C)c1C,"inconclusive: 12.6 µM [inhibitor, partial curve, poor fit]",
CCC(Sc1nc2c(sc3ccccc32)c(=O)n1CCc1ccc(OC)c(OC)c1)C(=O)N(CC)CC (stereo not given),inactive,
Cn1c(CNc2ccc(Cl)cc2)nnc1SCCN1CCCCC1,inactive,
C#CCOCCOCCOCCNc1nc(N2CCN(C(=O)CCCCCCCCCCNC(=O)Cn3cc(C[C@@H](C)O)nn3)CC2)nc(N2CCN(C(=O)CCCCCCCCCCNC(=O)[C@@H]([C@H](C)CC)n3cc(CCCCCN)nn3)CC2)n1,"inconclusive: 28.2 µM [inhibitor, single point]",
CCOc1ccccc1NC(=S)NC(=O)CCc1ccccc1,"inconclusive: 28.2 µM [inhibitor, single point]",
CC(=O)NNC(=S)NCCc1ccccc1,inactive,
COc1ccc(/C=C\c2nc(O)c([N+](=O)[O-])c(=O)[nH]2)cc1O,,inconclusive: -60.7% [inhibitor]
Cc1ccccc1-n1c(SCC(=O)Nc2ccccc2Cl)nc2n[nH]c(C)c2c1=N,inactive,
CC(Cc1cccs1)NC(=S)Nc1ccc(F)cc1 (stereo not given),"inconclusive: 28.2 µM [inhibitor, single point]",
CCN(CC)C(=O)c1sc2c(c1C)c(=O)n(Cc1ccccc1)c(=O)n2Cc1ccccc1C,inactive,
O=C(Nc1cc(C(F)(F)F)ccc1Cl)C(Sc1cccc[n+]1[O-])c1ccccc1 (stereo not given),"inconclusive: 5.62 µM [inhibitor, partial curve, poor fit]",
CC(C)OCCCNC(=O)Nc1cccc2ccccc12,inactive,

SMILES,Potency,"activity change, negative = inhibition"
O/N=C(\c1ccc(Cl)cc1Cl)c1ncc(C(F)(F)F)cc1Cl,"inconclusive: 12.6 µM [inhibitor, single point]",
N=c1n(CCCOc2ccc(Br)cc2)c2ccccc2n1CC(N)=O,"inconclusive: 11.2 µM [inhibitor, single point]",
Cc1ccc(C(=O)NNC(=O)CSc2nnc(-c3ccncc3)n2C)cc1,inactive,
CC[C@H](C)[C@@H]1OC(=O)[C@@H](C)[C@@H](CC)NC(=O)[C@H](C)N(C)C(=O)C(C)(C)C(=O)C(C)NC(=O)[C@H](Cc2ccccc2)N(C)C(=O)[C@H](C(C)C)N(C)C(=O)CNC(=O)[C@H](CC(C)C)N(C)C(=O)CNC1=O (stereo not given in full) (cyclo(G[NMeL]G[NMeV][NMeF][X1][NMeA][X2])),"inconclusive: 0.501 µM [inhibitor, full curve]",
CCCC(=O)c1c[nH]c(C(=O)N2CCOCC2)c1,inactive,
COC(=O)C1=C(C)N(C)C(=O)/C1=C\c1cccs1,"inconclusive: 2.24 µM [inhibitor, full curve]",
CCN(CC)c1ccc(-c2nc3cnccc3n2C)cc1,"inconclusive: 31.6 µM [inhibitor, single point]",
Cc1ccc(C(=O)NC(C(=O)OCc2cn3cc(Cl)ccc3n2)C(C)C)cc1 (stereo not given),inactive,
O=C(C#Cc1ccccc1)c1cccc([N+](=O)[O-])c1,"inconclusive: 10 µM [inhibitor, partial curve]",
CSc1nc(NCCOCCO)c2sc3nc(-c4ccco4)c4c(c3c2n1)CCC4,"inconclusive: 15.8 µM [inhibitor, single point]",
Cc1ccc(C(=O)O/N=C(\N)c2ccccn2)cc1,"inconclusive: 28.2 µM [inhibitor, single point]",
COc1ccc(C(=O)Nn2c(SCC(=O)N3CCC(C)CC3)nc3ccccc3c2=O)cc1,"inconclusive: 22.4 µM [inhibitor, single point]",
CC(C)c1ccc(S(=O)(=O)/N=C2\C=C(NS(=O)(=O)c3ccccc3)C(=O)c3ccccc32)cc1,"inconclusive: 12.6 µM [inhibitor, single point]",
Cc1ccc(NC(=O)CN2CCc3cc4c(cc3C2C)OCCCO4)cc1 (stereo not given),inactive,
COc1ccc(C2/C=C\CN(C(=O)c3ccc(C)cc3)CC(=O)N2Cc2ccc(F)cc2)cc1 (stereo not given),inactive,
Cc1cc(-c2c(C)[nH]n(-c3ccccc3)c2=O)n[nH]1,"inconclusive: 15.8 µM [inhibitor, partial curve, poor fit]",
COc1ccccc1C1C(C(N)=O)=C(C)Nc2nc(-c3ccc(Cl)cc3)nn21 (stereo not given),"inconclusive: 10 µM [inhibitor, single point]",
O=C(O)c1cccc(N(CCO)CCO)c1,inactive,
COc1cccc(-c2cnc(C(O)c3cccc(F)c3)[nH]2)c1 (stereo not given),inactive,
COc1ccc(S(=O)(=O)NCc2ccccn2)cc1NC(=O)c1ccc(C)cc1,"inconclusive: 1.12 µM [inhibitor, full curve]",
COC(=O)c1ccc(NC(=O)CN2CCN(S(=O)(=O)c3cc(Cl)ccc3OC)CC2)cc1,"inconclusive: 28.2 µM [inhibitor, single point]",
COc1cccc(C(=O)NCCc2csc3nc(-c4ccccc4F)nn23)c1OC,inactive,

SMILES,Potency,"activity change, negative = inhibition"
Cc1ccc(CNC(=O)Cn2c(SCC(=O)Nc3ccc(F)cc3)nc3ccccc32)cc1,"inconclusive: 12.6 µM [inhibitor, single point]",
CC(C)Oc1ccc(C(=O)/C=C2/C(=O)Nc3ccccc32)cc1,"inconclusive: 28.2 µM [inhibitor, single point]",
CC1(C)CC(=O)C(C=Nc2cc(C(=O)c3ccccc3)ccc2N)=C(O)C1,inactive,
NC(=O)c1cc2ccccc2o/c1=N/NC(=O)c1ccccc1,"inconclusive: 15.8 µM [inhibitor, single point]",
Cc1ccc(C(=O)Nc2ccc(C(=O)O)cc2)cc1S(=O)(=O)NCc1ccccc1,"inconclusive: 11.2 µM [inhibitor, single point]",
Cc1[nH]c2ccccc2c1/C=N/NC(=O)c1cccc(S(=O)(=O)Nc2cccc(C(F)(F)F)c2)c1,"inconclusive: 12.6 µM [inhibitor, single point]",
Cc1ccc(C)c(NC(=O)CN(C)C(=O)c2ccc(S(=O)(=O)N3CCCCCC3)cc2)c1,inactive,
COc1ccccc1NS(=O)(=O)c1cccc(C(=O)N/N=C/c2cn(-c3ccccc3)nc2-c2ccccc2)c1,inactive,
CNC(=O)C1CCN(C(=O)N2CC(C)Oc3ccc(Cl)cc32)CC1 (stereo not given),inactive,
CCOc1ccc2nc(NC(=O)CSc3nc4ccccc4c(=O)n3Cc3ccco3)sc2c1,"inconclusive: 10 µM [inhibitor, partial curve, poor fit]",
O=C(/C=C/c1ccc([N+](=O)[O-])s1)N1CCCCC1,"inconclusive: 11.2 µM [inhibitor, single point]",
COc1cc(C2C(C#N)=C(N)Oc3cc4c(cc32)OCO4)cc(OC)c1OC (stereo not given),"inconclusive: 0.501 µM [inhibitor, full curve, poor fit]",
CCOc1ccc(C(c2c(NC(=O)c3ccccc3)sc(C)c2C)N2CCN(C)CC2)cc1 (stereo not given),"inconclusive: 31.6 µM [inhibitor, single point]",
COc1ccc(/C=C2/SC(=S)N(CCCC(=O)Nc3cccc(O)c3)C2=O)cc1,"inconclusive: 25.1 µM [inhibitor, single point]",
COC(=O)c1c(NC(=O)CSc2nncs2)sc2c1CCCCC2,"inconclusive: 28.2 µM [inhibitor, single point]",
CCCn1nnc(NC(=S)NC(=O)c2ccc(-c3ccc(Br)cc3)o2)n1,"inconclusive: 5.62 µM [inhibitor, partial curve, poor fit]",
CCN(CC(=O)Nc1cc(Cl)ccc1C)C(=O)C1CCN(c2ncnc3sc(C)c(C)c23)CC1,"inconclusive: 28.2 µM [inhibitor, single point]",
COc1cc(OC)c(OC)cc1CN(C)CC1CCCN(CCc2ccccc2F)C1 (stereo not given),"inconclusive: 7.94 µM [inhibitor, partial curve, poor fit]",
O=C(N/N=C/C(Br)=C\c1ccccc1)c1ccc2nc[nH]c2c1,"inconclusive: 15.8 µM [inhibitor, single point]",
NC(=O)C(c1ccc(Br)cc1)c1ccc(C(=O)c2ccccc2)cc1 (stereo not given),inactive,
COc1ccc(C(C(=O)Nc2ccc(C(C)C)cc2)N(C)C(=O)c2ccc(=O)[nH]c2)cc1 (stereo not given),inactive,
